Patent US10604555B2, “GIP derivatives and uses thereof” (priority 2018, dated 2020)
At least one compound was matched to its structure with a doubt left.

Assay: ThT fibrillation assay (physical stability)
Type: physicochemical
Settings: 250 μM, pH 7.4, 37° C., 45 hours of incubation
Method in brief: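 250 μM GIP derivative in 8 mM phosphate, 14 mg/mL propylene glycol, 58 mM phenol, pH 7.4, with 1 μM ThT; plates shaken and heated, fluorescence (ex 444/em 485 nm) read every 20 min, four replicates. Sigmoidal fit gives lag-time (t0−2τ) and kapp (1/τ); recovery is HPLC concentration of filtered supernatant relative to initial sample.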

For `CCCC[C@H](NC(=O)[C@H](C)NC(=O)[C@@H](NC(=O)[C@H](CO)NC(=O)[C@H](Cc1ccc(O)cc1)NC(=O)[C@H](CC(=O)O)NC(=O)[C@H](CO)NC(=O)[C@@H](NC(=O)[C@H](Cc1ccccc1)NC(=O)[C@@H](NC(=O)CNC(=O)[C@H](CCC(=O)O)NC(=O)C(C)(C)NC(=O)[C@@H](Cc1ccc(O)cc1)NC(C)=O)[C@@H](C)O)[C@@H](C)CC)[C@@H](C)CC)C(=O)N[C@@H](CC(=O)O)C(=O)N[C@@H](CCCCN)C(=O)N[C@H](C(=O)N[C@@H](CCCNC(=N)N)C(=O)N[C@@H](CCC(N)=O)C(=O)N[C@@H](CCC(N)=O)C(=O)N[C@@H](CC(=O)O)C(=O)N[C@@H](Cc1ccccc1)C(=O)N[C@H](C(=O)N[C@@H](CCCCNC(=O)CC[C@H](NC(=O)CC[C@H](NC(=O)CC[C@H](NC(=O)CCCCCCCCCCCCCCCCC(=O)O)C(=O)O)C(=O)O)C(=O)O)C(=O)N[C@@H](Cc1c[nH]c2ccccc12)C(=O)N[C@@H](CC(C)C)C(=O)N[C@@H](CC(C)C)C(=O)N[C@@H](C)C(=O)N[C@@H](CCC(N)=O)C(=O)N[C@@H](CCCCN)C(=O)NCC(=O)O)C(C)C)[C@@H](C)CC` [Compound 5, N{1}-acetyl, N{Epsilon-24}-[(4S)-4-carboxy-4-[[(4S)-4-carboxy-4-[[(4S)-4-carboxy-4-(17-carboxyheptadecanoylamino)butanoyl]amino]butanoyl]amino]butanoyl]-[D-Tyr1,Aib2,Nle14,Arg18, Lys24]-hGIP(1-31)], the “ThT Assay Lag time” value was over 45 h.
